Experimental data as given in PubChem BioAssay AID1347165 (National Center for Advancing Translational Sciences (NCATS), 2019).
In all, about 220,000 compounds went through this assay and about 5,700 (2.6%) were called active. Inconclusive results, whose numbers are uncertain, are shown with a selection of clear calls. Calls follow the shape of the dose curve; as a rule, active = well fitted inhibition curve with a large enough effect; inconclusive = small, poorly fitted or top-dose-only effect; inactive = no such curve, though single readings can be large or run the other way. Where the call is inconclusive, the potency comes from a doubtful curve fit.

Target: Lysine-specific demethylase 5B (Homo sapiens) (UniProt Q9UGL1)
Test: Primary screen for KDM5B Histone Demethylases FDH-coupled qHTS; also: nearly all actives have a fitted effect of over 70% in size; as to activity change, negative = inhibition: 0% is about no effect
Conditions: FDH-coupled NADH fluorescence (FDH is formaldehyde dehydrogenase); activity change, negative = inhibition: at 57.7 µM (top of the series) unless noted
How it was run: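 Compound dilutions met 200 nM (final) KDM5BΔAP for 10 min at room temperature before substrate addition. The substrate mix held 12.5 µM H3K4me3 with cofactors 25 µM α-ketoglutarate and 50 µM Fe²⁺. NADH signal gain over 30 min defined activity.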
Potency is read from the fitted curve at half-maximal effect; tags tell the direction and shape of the fitted curve.

Sequence of UniProt Q9UGL1 (Q9UGL1 whole entry, looked up): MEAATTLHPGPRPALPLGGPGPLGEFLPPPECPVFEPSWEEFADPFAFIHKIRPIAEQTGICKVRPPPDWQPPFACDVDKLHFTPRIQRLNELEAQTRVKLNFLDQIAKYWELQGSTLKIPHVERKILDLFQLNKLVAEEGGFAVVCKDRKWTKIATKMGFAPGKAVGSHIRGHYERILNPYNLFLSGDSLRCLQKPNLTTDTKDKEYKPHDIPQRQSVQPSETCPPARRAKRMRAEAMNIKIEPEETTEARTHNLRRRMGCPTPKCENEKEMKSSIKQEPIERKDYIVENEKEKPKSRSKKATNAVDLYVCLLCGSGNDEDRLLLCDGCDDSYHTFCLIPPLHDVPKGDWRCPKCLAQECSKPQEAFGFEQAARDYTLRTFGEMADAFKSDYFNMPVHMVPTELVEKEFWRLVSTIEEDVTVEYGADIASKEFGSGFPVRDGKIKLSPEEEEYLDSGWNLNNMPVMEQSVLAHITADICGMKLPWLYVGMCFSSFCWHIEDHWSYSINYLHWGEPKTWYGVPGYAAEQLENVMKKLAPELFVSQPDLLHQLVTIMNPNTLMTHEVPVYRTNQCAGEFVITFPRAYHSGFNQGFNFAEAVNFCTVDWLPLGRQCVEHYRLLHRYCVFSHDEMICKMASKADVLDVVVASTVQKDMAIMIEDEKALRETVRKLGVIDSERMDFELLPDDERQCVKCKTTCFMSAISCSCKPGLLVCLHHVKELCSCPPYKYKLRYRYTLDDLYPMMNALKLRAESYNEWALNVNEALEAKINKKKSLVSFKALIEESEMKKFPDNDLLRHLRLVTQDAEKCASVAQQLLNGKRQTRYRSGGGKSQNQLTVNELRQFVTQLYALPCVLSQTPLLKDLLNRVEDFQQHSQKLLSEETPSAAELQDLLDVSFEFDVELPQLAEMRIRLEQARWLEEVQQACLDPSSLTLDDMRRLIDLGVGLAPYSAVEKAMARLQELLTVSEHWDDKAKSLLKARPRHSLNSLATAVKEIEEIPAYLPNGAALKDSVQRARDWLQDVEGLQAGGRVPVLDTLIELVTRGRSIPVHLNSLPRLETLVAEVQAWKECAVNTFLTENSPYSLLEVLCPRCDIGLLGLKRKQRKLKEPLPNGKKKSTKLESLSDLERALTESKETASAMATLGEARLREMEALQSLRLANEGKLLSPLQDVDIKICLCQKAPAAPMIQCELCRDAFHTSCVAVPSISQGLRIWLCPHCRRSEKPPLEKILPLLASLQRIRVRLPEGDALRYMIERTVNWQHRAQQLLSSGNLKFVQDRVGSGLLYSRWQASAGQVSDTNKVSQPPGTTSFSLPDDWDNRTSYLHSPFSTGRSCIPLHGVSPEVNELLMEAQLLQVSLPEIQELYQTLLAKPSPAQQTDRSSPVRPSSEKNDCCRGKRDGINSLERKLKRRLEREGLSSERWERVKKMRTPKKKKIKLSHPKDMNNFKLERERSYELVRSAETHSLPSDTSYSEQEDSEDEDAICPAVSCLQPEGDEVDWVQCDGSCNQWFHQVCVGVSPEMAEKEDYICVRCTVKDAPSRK

Row | SMILES | Potency | activity change, negative = inhibition
1 | Cc1ccc2[nH]c(=O)c3cc(C(=O)NCCCN4CCC(C)CC4)sc3c2c1 | inconclusive: 17.8 µM [inhibitor, partial curve, poor fit] | –
2 | Cc1cc(C(=O)NCC2Cn3cccc3CN2Cc2ccccc2)n[nH]1 (stereo unspecified) | active: 31.6 µM | –
3 | Cn1nc(C2CCNC2)c2c(C(=O)NC3CC3)cc(C3CC3)nc21 (stereo unspecified) | active: 100 µM | –
4 | NS(=O)(=O)c1ccc(CNc2nccc(-c3cccnc3)n2)cc1 | active: 31.6 µM | –
5 | Cc1ccc(C(=O)N2CC(c3nnc(C(C)C)o3)C3(CCOCC3)C2)cc1 (stereo unspecified) | inactive | –
6 | Cc1cc(C(=O)O)cs1 | inactive | –
7 | COc1ccc(CNC(=O)c2ccc3nc(Cc4ccccc4F)oc3c2)c(OC)c1 | inactive | –
8 | COc1ccc(Nc2ncnc3c2nc2n3CCCCC2)cc1 | inconclusive: 50.1 µM [inhibitor, single point] | –
9 | COCCOC1CCOC2(CCN(C(=O)CCCc3ccccc3)CC2)C1 (stereo unspecified) | inconclusive: 31.6 µM [inhibitor, single point] | –
10 | O=C(O)CCCCCCCCCCCC(=O)O | inactive | –
11 | Cc1ccc(C)c(N2N=C(C(=O)Nc3ccc(S(=O)(=O)N4CCCCC4)cc3)CCC2=O)c1 | inconclusive: 39.8 µM [inhibitor, single point] | –
12 | O=C(Cn1ncn2c(cc3ccccc32)c1=O)NCc1ccc(F)cc1 | inactive | –
13 | COc1ccc(C(=O)Nc2oc3ccccc3c(=O)c2-c2ccc(Cl)cc2)cc1OC | inactive | –
14 | CC(=O)N1CC2(CCCN(Cc3cc4ccccc4[nH]3)C2)Cc2ccccc21 (stereo unspecified) | inactive | –
15 | CC(C)NS(=O)(=O)c1ccc(Cl)c(C(=O)NCc2ccc(-c3nc4ccccc4s3)o2)c1 | inconclusive: 28.2 µM [inhibitor, partial curve, poor fit] | –
16 | Cc1ccc(-c2cc(-c3ccccc3)c(C#N)c(SCC(O)CS(=O)(=O)Cc3ccccc3)n2)cc1 (stereo unspecified) | inconclusive: 17.8 µM [inhibitor, partial curve, poor fit] | –
17 | Cc1nc(-c2cc(C#N)c(=O)[nH]c2C)cs1 | inconclusive: 28.2 µM [inhibitor, partial curve, poor fit] | –
18 | Cc1cc(C)c2oc(C(=O)N3CCOC34CCN(C)CC4)cc(=O)c2c1 | inconclusive: 39.8 µM [inhibitor, single point] | –
19 | CN(Cc1cccnc1)C(=O)CCC[C@@H]1[C@H]2CCCN3CCC[C@@H](CN1Cc1cccnc1)[C@@H]23 | active: 22.4 µM | –
20 | COc1ccc(C(=O)Nc2nc(-c3nnn(-c4ccc(C(C)C)cc4)c3C)ns2)cc1 | – | inconclusive: -39.5% [inhibitor]
21 | COC(=O)c1cc(NC(=O)N2CCc3[nH]cnc3C2c2ccc(Cl)cc2)ccc1Cl (stereo unspecified) | inactive | –
22 | O=C(COC(=O)Cc1ccc(F)cc1)NCc1ccc(Cl)cc1 | inactive | –
23 | O=C(NCc1ccc(-c2ccc(F)cc2)o1)C1CC(=O)N(Cc2cccnc2)C1 (stereo unspecified) | active: 25.1 µM | –
24 | CC(C)CNC(=O)c1ccnc(-c2nnc3ccc(N4CCN(C)CC4)nn23)c1 | inactive | –

Row | SMILES | Potency | activity change, negative = inhibition
25 | O=C(Cc1ccsc1)N1CCC2(CC1)N=C(c1ccccc1)NO2 | inconclusive: 28.2 µM [inhibitor, single point] | –
26 | COc1ccccc1C(=O)N1CCN(c2oc(-c3cccc(C)c3)nc2C#N)CC1 | inconclusive: 1.78 µM [inhibitor, partial curve, poor fit] | –
27 | CCOc1ccccc1NC(=O)Nc1cc(C)c2nc(NC(=O)c3ccccc3)sc2c1 | inactive | –
28 | c1ccc(CN2CC[C@H](c3nnc(-c4ccco4)o3)C2)nc1 | inconclusive: 31.6 µM [inhibitor, partial curve, poor fit] | –
29 | Cc1cc(C)nc(N2CCCC(C(=O)NC3CC3)C2)n1 (stereo unspecified) | inconclusive: 35.5 µM [inhibitor, partial curve, poor fit] | –
30 | Cc1cc(C(=O)O)ccc1-c1ccc(C=O)o1 | inconclusive: 20 µM [inhibitor, partial curve, poor fit] | –
31 | CC(=O)N1CCN(C(C(=O)O)c2cn(CC(=O)O)c3ccccc23)CC1 (stereo unspecified) | inactive | –
32 | CC(=O)c1cccc(NS(=O)(=O)c2cc3c(cc2C)n(C)c(=O)c(=O)n3C)c1 | inconclusive: 25.1 µM [inhibitor, single point] | –
33 | COc1ccc(NC(=O)COc2ccc(Cl)cc2)c2cccnc12 | inactive | –
34 | CSc1ccc(CN(C)C(=O)NCc2ccc(S(=O)(=O)N3CCCCC3)cc2)cc1 | inconclusive: 28.2 µM [inhibitor, partial curve, poor fit] | –
35 | Cc1nnc(NC(=O)C[C@H]2NC(=O)c3ccccc3NC2=O)s1 | inactive | –
36 | Cc1sc(NC(=O)c2cc3ccccc3s2)c(C#N)c1C | inconclusive: 39.8 µM [inhibitor, partial curve, poor fit] | –
37 | O=C(NCc1c[nH]c2ncccc12)c1ccccn1 | inconclusive: 31.6 µM [inhibitor, partial curve, poor fit] | –
38 | O=S(=O)(c1ccc(Cl)cc1)c1nc(-c2ccco2)oc1SCc1ccccc1F | inconclusive: 39.8 µM [inhibitor, single point] | –
39 | Cc1[nH]ncc1CNC(=O)CCC[C@@H]1[C@H]2CCCN3CCC[C@@H](CN1Cc1cccnc1)[C@@H]23 | inconclusive: 20 µM [inhibitor, single point] | –
40 | COc1ccccc1CNC(=O)CSc1ccc(-c2sc(-c3ccccc3)nc2C)nn1 | inconclusive: 1.12 µM [inhibitor, full curve, poor fit] | –
41 | CCOc1ccccc1C(=O)Nc1ccc(OCC)c2ncccc12 | inactive | –
42 | COc1ccc(OC)c(-n2c3c(cc(-c4nc(-c5ccc(Cl)cc5)cs4)c2=O)C(=O)CC(C)(C)C3)c1 | inconclusive: 3.16 µM [inhibitor, full curve, poor fit] | –
43 | COc1ccc(Cl)cc1-c1ccc2c(n1)CN(CCOc1ccccc1)C(=O)CO2 | inconclusive: 35.5 µM [inhibitor, partial curve, poor fit] | –
44 | Cc1c(NC(=O)C(C)(C)Oc2ccc(Cl)cc2)cccc1-c1nc2ccccc2o1 | inconclusive: 25.1 µM [inhibitor, partial curve, poor fit] | –
45 | COc1ccc(CNC2(Cc3cc(CN(C)Cc4ccccc4)on3)COC2)c(O)c1 | inconclusive: 31.6 µM [inhibitor, partial curve] | –
46 | CC(=O)NCC(=O)N[C@@H]1CN(Cc2ccccc2)C[C@H]1CO | inactive | –
47 | Cc1ccccc1-c1nn(-c2ccc(F)cc2F)cc1CN1CCCC1CCO (stereo unspecified) | inactive | –
48 | O=C(c1ccco1)N1CCN(Cc2nnc(-c3ccccc3F)o2)CC1 | inconclusive: 39.8 µM [inhibitor, single point] | –

Row | SMILES | Potency | activity change, negative = inhibition
49 | CC(C)N(C)Cc1nnnn1CC(=O)NCc1nc(-c2ccccc2)cs1 | inconclusive: 15.8 µM [inhibitor, partial curve, poor fit] | –
50 | N#Cc1ccc(N)c(Br)c1 | inconclusive: 39.8 µM [inhibitor, single point] | –
51 | COc1ccc(-c2ccnc3nc(C(C)C)nn23)cc1OC | active: 28.2 µM | –
52 | COC(=O)c1ccc(NC(=O)CSc2nnc3c4ccccc4n(C(C)C)c3n2)cc1 | – | inconclusive: -30.1% [inhibitor]
53 | O=C1CCc2cc(-c3csc(NC4CC4)n3)ccc2N1 | inactive | –
54 | Cc1ccc(NC(=O)c2ccc3c(c2)N(C)C2CCCCCN2C3=O)cc1C (stereo unspecified) | inconclusive: 35.5 µM [inhibitor, partial curve, poor fit] | –
55 | COc1nc2nc(CCc3ccccc3)n(C)c2cc1-c1ccc(CO)cc1 | active: 35.5 µM | –
56 | O=C(O)C1=NOC2CN(Cc3c(F)cccc3Cl)CC12 (stereo unspecified) | inactive | –
57 | Cc1ccc2c(C(=O)NCc3ccccc3C(F)(F)F)cc(NC(=O)C(C)C)cc2n1 | active: 25.1 µM | –
58 | N#Cc1nc(-c2ccc(S(=O)(=O)N3CCc4ccccc4C3)cc2)oc1NCCCn1ccnc1 | inconclusive: 2.82 µM [inhibitor, full curve, poor fit] | –
59 | OCCCn1c(-c2ccc(F)cc2)csc1=Nc1ccc(F)cc1 | inconclusive: 17.8 µM [inhibitor, partial curve, poor fit] | –
60 | Oc1cccc(CN(Cc2ccsc2)Cc2ccco2)c1 | inconclusive: 17.8 µM [inhibitor, partial curve, poor fit] | –
61 | CCNC(=S)N/N=C(/C)c1cccc(F)c1 | inactive | –
62 | COc1cc(NC(=O)C(Cc2ccccc2)NS(=O)(=O)c2cccs2)cc(OC)c1 (stereo unspecified) | – | inconclusive: -39.4% [inhibitor]
63 | COc1cc(OC)c(NC2=C(c3ccc(C(F)(F)F)cc3)C(=O)c3ccccc32)cc1Cl | inactive | –
64 | CC(=O)c1ccc(-n2c(CCC(=O)O)ccc2-c2cccs2)cc1 | inconclusive: 25.1 µM [inhibitor, partial curve, poor fit] | –
65 | O=C(CCS(=O)(=O)c1ccccc1)N(Cc1cccnc1)c1nc2ccc(F)cc2s1 | – | inconclusive: -33.9% [inhibitor]
66 | CCOC(=O)C1=C(C)N=C2SC=C(CC(=O)N3CCCC3)N2C1c1cccc(F)c1 (stereo unspecified) | inconclusive: 28.2 µM [inhibitor, partial curve, poor fit] | –
67 | Cc1ccc(C)c(CSc2nnc(C)n3c2cc2sccc23)c1 | inconclusive: 35.5 µM [inhibitor, single point] | –
68 | Cc1ccc2c(C=O)c[nH]c2c1 | inactive | –
69 | O=C(NCCc1ccccn1)c1ccc2ccccc2c1 | inactive | –
70 | CN(Cc1nccn1Cc1ccccc1)C(=O)CCc1ccc2c(c1)OCO2 | inconclusive: 31.6 µM [inhibitor, partial curve, poor fit] | –
71 | COC[C@@H]1CN(C(=O)c2ccoc2)C[C@H]1c1ccccn1 | inactive | –
